Experimental data reported in ChEMBL document CHEMBL1201862, “PubChem BioAssay data set” (2004).
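96-well plates; 48 h exposure; 5 concentrations. Endpoints by linear interpolation between flanking doses. Not reached: highest tested concentration assigned. Here, GI50 denotes the concentration required for 50% inhibition of growth.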 Calls of active or inactive are those of the source. Cut-off read from the data, not from the text of the source: active = GI50 up to about 1.1 µM and inactive = higher.

Legend:
Assay in all cases: growth of human tumour cells (NCI), 48 h
UACC-257 = tested on: UACC-257
MDA-MB-231 = tested on: MDA-MB-231
IGROV-1 = tested on: IGROV-1
HT-29 = tested on: HT-29
SN12C = tested on: SN12C
SF-295 = tested on: SF-295
SK-OV-3 = tested on: SK-OV-3
UACC-62 = tested on: UACC-62
CCRF-CEM = tested on: CCRF-CEM
RXF 393 = tested on: RXF 393
HCC 2998 = tested on: HCC 2998
OVCAR-5 = tested on: OVCAR-5
HOP-62 = tested on: HOP-62
OVCAR-3 = tested on: OVCAR-3
DU-145 = tested on: DU-145
SW-620 = tested on: SW-620
U-251 = tested on: U-251
786-0 = tested on: 786-0
M14 = tested on: M14
NCI/ADR-RES = tested on: NCI/ADR-RES
SF-539 = tested on: SF-539
BT-549 = tested on: BT-549
MCF7 = tested on: MCF7
Malme-3M = tested on: Malme-3M
HL-60 = tested on: HL-60
SK-MEL-5 = tested on: SK-MEL-5
OVCAR-8 = tested on: OVCAR-8
KM12 = tested on: KM12
NCI-H226 = tested on: NCI-H226
OVCAR-4 = tested on: OVCAR-4
CAKI-1 = tested on: CAKI-1
HCT-116 = tested on: HCT-116
SNB-19 = tested on: SNB-19
TK-10 = tested on: TK-10
UO-31 = tested on: UO-31
A549 = tested on: A549
SR = tested on: SR
K562 = tested on: K562
SNB-75 = tested on: SNB-75
PC-3 = tested on: PC-3
T47D = tested on: T47D
SK-MEL-2 = tested on: SK-MEL-2
MDA-MB-435 = tested on: MDA-MB-435
NCI-H460 = tested on: NCI-H460
SF-268 = tested on: SF-268
Hs-578T = tested on: Hs-578T
COLO 205 = tested on: COLO 205
SK-MEL-28 = tested on: SK-MEL-28
HCT-15 = tested on: HCT-15
LOX IMVI = tested on: LOX IMVI
MDA-N = tested on: MDA-N
MOLT-4 = tested on: MOLT-4
EKVX = tested on: EKVX
HOP-92 = tested on: HOP-92
NCI-H23 = tested on: NCI-H23
A498 = tested on: A498
NCI-H522 = tested on: NCI-H522
ACHN = tested on: ACHN
RPMI-8226 = tested on: RPMI-8226

COc1cccc2c1NC(=O)Cc1c-2[nH]c2ccc(Br)cc12
GI50 (UACC-257): inactive: 8.38 µM
GI50 (MDA-MB-231): inactive: 65.2 µM
GI50 (IGROV-1): inactive: 25.6 µM
GI50 (HT-29): inactive: 9.18 µM
GI50 (SN12C): inactive: 55 µM
GI50 (SF-295): inactive: 14.7 µM
GI50 (SK-OV-3): inactive: 23.2 µM
GI50 (UACC-62): inactive: 30.5 µM
GI50 (CCRF-CEM): inactive: > 100 µM
GI50 (RXF 393): inactive: 20.3 µM
GI50 (HCC 2998): inactive: 7.31 µM
GI50 (OVCAR-5): inactive: 29.6 µM
GI50 (HOP-62): inactive: 8.65 µM
GI50 (OVCAR-3): inactive: 8.81 µM
GI50 (DU-145): inactive: 13.8 µM
GI50 (SW-620): inactive: 75.9 µM
GI50 (U-251): inactive: 37.2 µM
GI50 (786-0): inactive: 4.04 µM
GI50 (M14): inactive: 42.8 µM
GI50 (NCI/ADR-RES): inactive: 6.62 µM
GI50 (SF-539): inactive: 31 µM
GI50 (BT-549): inactive: 24.1 µM
GI50 (MCF7): inactive: 6.05 µM
GI50 (Malme-3M): inactive: 11.8 µM
GI50 (HL-60): inactive: 2.64 µM
GI50 (SK-MEL-5): inactive: 30.5 µM
GI50 (OVCAR-8): inactive: 12 µM
GI50 (KM12): inactive: 28.4 µM
GI50 (NCI-H226): inactive: 30.1 µM
GI50 (OVCAR-4): inactive: 10.4 µM
GI50 (CAKI-1): inactive: 25.9 µM
GI50 (HCT-116): inactive: 9.71 µM
GI50 (SNB-19): inactive: 17.5 µM
GI50 (TK-10): inactive: 20 µM
GI50 (UO-31): inactive: 18 µM
GI50 (A549): inactive: 8.22 µM
GI50 (SR): inactive: 33.4 µM
GI50 (K562): inactive: 6.58 µM
GI50 (SNB-75): inactive: 27.4 µM
GI50 (PC-3): inactive: 13.3 µM
GI50 (T47D): inactive: 9.33 µM
GI50 (SK-MEL-2): inactive: 28.2 µM
GI50 (MDA-MB-435): inactive: 61.5 µM
GI50 (NCI-H460): inactive: 14.6 µM
GI50 (SF-268): inactive: 19.3 µM
GI50 (Hs-578T): inactive: 48.9 µM
GI50 (COLO 205): inactive: > 100 µM
GI50 (SK-MEL-28): inactive: 41 µM
GI50 (HCT-15): 28.7 µM
GI50 (LOX IMVI): inactive: 62.1 µM
GI50 (MDA-N): inactive: 28.4 µM
GI50 (MOLT-4): inactive: 8.49 µM
GI50 (EKVX): inactive: 24.2 µM
GI50 (HOP-92): inactive: 55.8 µM
GI50 (NCI-H23): inactive: 43 µM
GI50 (A498): inactive: 44.4 µM
GI50 (NCI-H522): inactive: 27.5 µM
GI50 (ACHN): inactive: 14.2 µM
GI50 (RPMI-8226): inactive: 23.7 µM
